Laboratory results as given in PubChem BioAssay AID588591 (National Center for Advancing Translational Sciences (NCATS), 2011).
Screen size: about 390,000 compounds; about 4,700 (1.2%) were called active. The inconclusive results got no clear call from the source; some entries with a clear call stand among them for comparison. Calls come from the whole dose curve; as a rule, active = well fitted inhibition curve with a large enough effect; inconclusive = small, poorly fitted or top-dose-only effect, or another doubt; inactive = no such curve, though single readings can be large or run the other way. Where the call is inconclusive, the potency comes from a doubtful curve fit.

Molecular target: DNA polymerase eta (Homo sapiens) (UniProt Q9Y253)
Chain of UniProt Q9Y253 (Q9Y253 whole entry, looked up): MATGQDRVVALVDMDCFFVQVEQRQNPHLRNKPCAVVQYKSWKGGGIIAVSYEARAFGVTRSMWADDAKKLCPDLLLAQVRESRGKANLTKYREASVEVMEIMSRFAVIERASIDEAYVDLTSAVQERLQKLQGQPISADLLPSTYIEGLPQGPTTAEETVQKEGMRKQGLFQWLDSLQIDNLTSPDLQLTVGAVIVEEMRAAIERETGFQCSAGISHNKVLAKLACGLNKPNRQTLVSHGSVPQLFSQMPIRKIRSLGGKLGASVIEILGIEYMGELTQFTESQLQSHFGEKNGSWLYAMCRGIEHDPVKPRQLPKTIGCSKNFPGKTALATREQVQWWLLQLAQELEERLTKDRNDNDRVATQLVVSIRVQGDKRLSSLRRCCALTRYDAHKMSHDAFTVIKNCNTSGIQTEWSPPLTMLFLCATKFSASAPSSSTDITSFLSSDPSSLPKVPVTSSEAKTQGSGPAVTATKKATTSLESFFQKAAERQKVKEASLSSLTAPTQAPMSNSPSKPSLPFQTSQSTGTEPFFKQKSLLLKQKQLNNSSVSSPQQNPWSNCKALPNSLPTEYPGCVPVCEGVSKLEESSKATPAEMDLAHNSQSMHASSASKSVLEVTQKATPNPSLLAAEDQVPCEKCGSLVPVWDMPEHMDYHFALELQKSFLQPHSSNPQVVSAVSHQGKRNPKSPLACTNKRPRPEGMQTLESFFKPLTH
Assay: qHTS for Inhibitors of Polymerase Eta
Details: recombinant Pol eta, fluorescent DNA replication assay; series mostly up to 114 µM
How it was run: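 Fluorescent replication assay: 50 nM final substrate added after a 15 min room-temperature compound preincubation with 10 nM enzyme. Signal taken at 0 min and again at 10 min.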
Potency is the fitted concentration of half-maximal effect; tags give direction and shape of the fitted curve.

| Compound | Potency |
| --- | --- |
| C/C(=N\NC(=O)c1cccc(Cl)c1)C1C(=O)c2ccccc2C1=O | inconclusive: 20 µM [inhibitor, partial curve, poor fit] |
| CC(C)(C)c1ccc(C(=O)NCC(c2ccco2)S(=O)(=O)c2ccccc2)cc1 (stereo not drawn) | inactive |
| CCCCOc1ccc(CNC(=O)NS(=O)(=O)c2ccc(OCC(C)C)cc2)cc1 | inconclusive: 35.5 µM [inhibitor, partial curve, poor fit] |
| CC[C@@](C)(NS(=O)(=O)OCC(Cl)(Cl)Cl)c1ccccc1 | inconclusive: 89.1 µM [inhibitor, partial curve, poor fit] |
| COc1ccc(C(=O)Oc2c(Sc3ccccc3)c(C)nn2-c2ccccc2)c(OC)c1 | inconclusive: 79.4 µM [inhibitor, partial curve, poor fit] |
| COc1ccc(-c2sc3ccc(OC)cc3c2C#CCCO)cc1 | inconclusive: 89.1 µM [inhibitor, partial curve, poor fit] |
| OC(COC(c1ccc(F)cc1)c1ccc(F)cc1)CN1CCc2ccccc2C1 (stereo not drawn) | inconclusive: 89.1 µM [inhibitor, partial curve, poor fit] |
| COc1cccc(CNC(=O)Cn2nc(C)n3c(cc4cc(C)ccc43)c2=O)c1OC | inactive |
| CC(NC(=O)c1cc(-c2ccccn2)nc2ccc(Cl)cc12)C1CCCO1 (stereo not drawn) | inconclusive: 25.1 µM [inhibitor, full curve] |
| O=P(O)(c1ccccc1)c1ccccc1O | inactive |
| CC(N=Cc1cccc(O)c1O)c1ccccc1 (stereo not drawn) | inconclusive: 20 µM [inhibitor, partial curve, poor fit] |
| Cc1nc(-n2nc(C)c(Cc3ccc(Cl)cc3)c2C)sc1C(=O)N1CCC(C)CC1 | inactive |
| CCOc1ccc(N=CC2=C(O)CC(c3ccco3)CC2=O)cc1 (stereo not drawn) | inactive |
| Cc1ccccc1C(=O)Nc1nnc(CC(=O)N/N=C/c2cn(Cc3ccccc3)c3ccccc23)s1 | inconclusive: 56.2 µM [inhibitor, partial curve] |
| Cc1ccc(C)c(NC(=O)CSc2nc3nc(-c4cccs4)cc(C(F)(F)F)c3c(=O)[nH]2)c1 | inconclusive: 20 µM [inhibitor, full curve] |
| O=C1CCNc2cc3ccccc3cc21 | inconclusive: 31.6 µM [inhibitor, partial curve, poor fit] |
| CC(C)Cc1nnc(NC(=O)c2ccc3c(c2)OCCO3)s1 | inconclusive: 89.1 µM [inhibitor, single point] |
| COC(=O)c1sc2nc(-c3ccccc3)nc(N3CCN(C)CC3)c2c1C | inconclusive: 10 µM [inhibitor, full curve, poor fit] |
